Assay results: the supplement of paper PMC4967469

Columns and labels:
Test in all cases: Viability of human cancer cell lines after 72 h of drug (GDSC screen)
[1] = compound: C/C=C(/C)C(=O)O[C@H]1C(C)=C2[C@H]([C@@H]1OC(=O)CCCCCCC)[C@@](C)(OC(C)=O)C[C@H](OC(=O)CCC)[C@@]1(O)[C@H]2OC(=O)[C@@]1(C)O [Thapsigargin]; details: top dose 0.512 µM; top dose inferred
Procedure: (§1)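 Human cancer cell lines in 384-well plates, medium with 10% serum, drug for 72 h over a 256-fold dose range (nine 2-fold or five 4-fold steps up to the top dose). Adherent lines were fixed and stained with the nucleic acid dye Syto60, suspension lines read with resazurin; signal relative to control wells, capped at 0 and 100%. One two-parameter sigmoid per drug and line, fitted in a mixed model over all curves with the slope shared within a line.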

[2] = compound: CCn1c(-c2nonc2N)nc2cnc(Oc3cccc(NC(=O)c4ccc(OCCN5CCOCC5)cc4)c3)cc21 [GSK269962A]; details: top dose inferred
Procedure: as §1

[3] = compound: COc1cc(N2CCC(O)CC2)ccc1Nc1cc(Nc2ccccc2S(=O)(=O)C(C)C)c2cc[nH]c2n1 [MPS-1-IN-1]; details: top dose 20 µM; top dose inferred
Procedure: as §1

[4] = compound: COc1cc(O)c2c(c1)/C=C/C[C@H](O)[C@H](O)C(=O)/C=C\C[C@H](C)OC2=O [(5Z)-7-Oxozeaenol]; details: top dose 10 µM; top dose inferred
Procedure: as §1

[5] = compound: COc1cc2ncnc(-n3nc(-c4ccccn4)nc3N)c2cc1OC [CP466722]; details: top dose 16 µM; top dose inferred
Procedure: as §1

[6] = compound: COc1nc(C)cnc1NS(=O)(=O)c1cccnc1-c1ccc(-c2nnco2)cc1 [Zibotentan]; details: top dose 20 µM; top dose inferred
Procedure: as §1

[7] = compound: C[C@]1(c2nc3c(C(N)=O)cccc3[nH]2)CCCN1 [ABT-888]; details: top dose 5 µM; top dose inferred
Procedure: as §1

[8] = compound: Cc1ccc(-c2c(C(=O)CCl)n(CCCO)c3ncnc(N)c23)cc1 [CMK]; details: top dose 4 µM; top dose inferred
Procedure: as §1

[9] = compound: Cc1ccc(F)c(NC(=O)Nc2ccc(-c3cccc4[nH]nc(N)c34)cc2)c1 [ABT-869]; details: top dose 1.024 µM; top dose inferred
Procedure: as §1

[10] = compound: Cc1cnc(-c2cnc(NCCNc3ccc(C#N)cn3)nc2-c2ccc(Cl)cc2Cl)[nH]1 [CHIR-99021]
Procedure: as §1

[11] = compound: Nc1ccn([C@@H]2O[C@H](CO)[C@@H](O)[C@@H]2O)c(=O)n1 [Cytarabine]; details: top dose 2 µM
Procedure: as §1

[12] = compound: O=c1cc(-c2cccc3c2Sc2ccccc2S3)oc(N2CCOCC2)c1 [KU-55933]; details: top dose 10 µM
Procedure: as §1

[13] = compound: C=CC(=O)Nc1cc(-n2c(=O)ccc3cnc4ccc(-c5cn[nH]c5)cc4c32)ccc1C [QL-X-138]; details: top dose 10.24 µM; top dose inferred
Procedure: as §1

[14] = top dose 2.5 µM, screen: GDSC drug entry 127
[15] = top dose 5 µM, screen: GDSC drug entry 1192
[16] = top dose 2.56 µM, screen: GDSC drug entry 154
[17] = top dose 10 µM, screen: GDSC drug entry 1241, top dose inferred

Cell Line	AUC [1]	IC50 [1] [nM]	AUC [2, 14]	IC50 [2, 14] [nM]	AUC [2, 15]	IC50 [2, 15] [nM]	AUC [3]	IC50 [3] [nM]	AUC [4]	IC50 [4] [nM]	AUC [5]	IC50 [5] [nM]	AUC [6]	IC50 [6] [nM]	AUC [7]	IC50 [7] [nM]	AUC [8]	IC50 [8] [nM]	AUC [9]	IC50 [9] [nM]	AUC [10, 16]	IC50 [10, 16] [nM]	AUC [10, 17]	IC50 [10, 17] [nM]	AUC [11]	IC50 [11] [nM]	AUC [12]	IC50 [12] [nM]	AUC [13]	IC50 [13] [nM]
CMK (acute myeloid leukaemia, suspension)	0.547	42.2	0.786	907	0.847	2870	0.85	11700	0.67	1710	0.627	2110	0.981	> 20000	0.987	> 5000	0.95	> 4000	0.991	> 1020	0.978	> 2560	0.966	> 10000	0.867	1360	0.96	> 10000	–	–
DJM-1 (skin, adherent)	0.439	21.8	0.986	> 2500	–	–	0.912	> 20000	–	–	0.919	> 16000	0.987	> 20000	0.986	> 5000	0.974	> 4000	0.987	> 1020	0.986	> 2560	–	–	0.862	1680	0.974	> 10000	0.859	8330
EB2 (Burkitt lymphoma, suspension)	0.342	12.2	0.957	> 2500	0.972	> 5000	0.911	> 20000	0.814	4830	0.501	1000	0.99	> 20000	0.99	> 5000	0.95	> 4000	0.988	> 1020	0.99	> 2560	0.989	> 10000	0.99	> 2000	0.99	> 10000	–	–
GCIY (stomach, adherent)	0.567	50.2	0.937	> 2500	–	–	0.952	> 20000	–	–	0.742	5460	0.98	> 20000	0.984	> 5000	0.844	3420	0.983	> 1020	0.975	> 2560	–	–	0.866	> 2000	0.9	> 10000	0.643	1680
GDM-1 (acute myeloid leukaemia, suspension)	0.561	46.6	0.51	166	0.678	955	0.724	5220	0.486	574	0.589	1740	0.971	> 20000	0.987	> 5000	0.929	> 4000	0.176	7.15	0.979	> 2560	0.986	> 10000	0.98	> 2000	0.985	> 10000	–	–
JSC-1 (B-cell lymphoma, suspension)	0.645	80	–	–	–	–	0.794	9060	–	–	0.655	2680	0.983	> 20000	0.982	> 5000	0.851	3020	0.983	> 1020	0.987	> 2560	–	–	0.812	1060	0.971	> 10000	0.395	330
LB647-SCLC (small cell lung carcinoma, semi-adherent)	0.255	5.74	0.976	> 2500	0.885	> 5000	–	–	0.738	3300	0.846	13800	–	–	0.985	> 5000	0.786	1950	–	–	0.979	> 2560	0.983	> 10000	0.809	1190	0.954	> 10000	–	–
MHH-NB-11 (neuroblastoma, adherent)	0.574	52.2	0.44	105	–	–	0.75	7120	–	–	0.82	10400	0.981	> 20000	0.941	> 5000	0.916	> 4000	0.953	> 1020	0.981	> 2560	–	–	0.754	733	0.978	> 10000	0.734	3210
NB69 (neuroblastoma, adherent)	0.145	3.04	0.968	> 2500	0.975	> 5000	0.785	7540	–	–	0.726	4010	0.987	> 20000	0.983	> 5000	0.909	> 4000	0.948	> 1020	0.867	1880	–	–	0.43	82.5	0.978	> 10000	0.667	1750
WIL2-NS (lymphoid neoplasm, suspension)	0.208	5.53	0.952	> 2500	0.958	> 5000	0.796	7460	0.794	3670	0.539	1250	0.987	> 20000	0.979	> 5000	0.737	1010	0.992	> 1020	0.992	> 2560	0.992	> 10000	0.76	587	0.992	> 10000	–	–

A lower IC50 marks a more sensitive line; a fit beyond the top or the lowest dose is shown as a bound at that dose. AUC sums up the same curve from the lowest dose to the 256-fold higher top dose: 1 means no effect, lower means more sensitive. For some assays here: Where the top dose is marked as inferred, it comes from the curve model; the source does not state it. For some assays here: Where an entry number is given, a second screen of the drug exists; the two often differ.
